Test results taken from PubChem BioAssay (Tox21).
Several values for one entry are separate records, joined by “and”; a condition that tells them apart may be missing. Equal values may be shown once. The shares of active, inactive and inconclusive entries below differ from those in the screen. For part of these data: Where the call is inconclusive, the potency comes from a doubtful curve fit. Activity calls are given as the source filed them. Unless noted, calls come from the whole dose curve; as a rule, active = well fitted curve in the direction sought with a large enough effect in the repeat runs; inconclusive = weak or mixed curves; inactive = no such curve, though single readings can be large; an effect the other way counts as inactive or inconclusive.

What was measured:
[1] = molecular target: Peroxisome proliferator-activated receptor gamma (Homo sapiens) (UniProt P37231); experiment: qHTS assay to identify small molecule antagonists of the peroxisome proliferator-activated receptor gamma (PPARg) signaling pathway (AID 743191; calls by dose curve; note: nearly all actives have a fitted effect of over 30% in size; note: potency is the fitted concentration of half-maximal effect; for ratio activity, negative = inhibition: % is set by controls: 0 for no effect and ±100 for the full control effect); conditions: HEK293H PPARg-UAS-bla, beta-lactamase ratio, antagonist, 17 h; ratio activity, negative = inhibition: at 62.6 µM (top of the series) unless noted
How it was run: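 GeneBLAzer PPARg UAS-bla HEK293H cells carrying a UAS-driven beta-lactamase reporter were plated at 3000 cells/well, preincubated 5 h at 37C, then given compound for 17 h at 37C; LiveBLAzer B/G FRET substrate was read after 1 h at room temperature.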

[2] = qHTS assay to identify small molecule antagonists of the peroxisome proliferator-activated receptor gamma (PPARg) signaling pathway - cell viability counter screen (AID 743194); conditions: PPARg-bla HEK293H viability, CellTiter-Glo luminescence, 17 h, co-treated with 50 nM rosiglitazone; activity change, negative = cytotoxicity: at 62.6 µM (top of the series) unless noted; note: potency is the fitted concentration of half-maximal effect; nearly all actives have a fitted effect of over 55% in size
How it was run: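 PPARg-UAS-bla HEK293H cells were plated, rested 5 h at 37 C, then treated with compounds plus rosiglitazone (50 nM final) for 17 h at 37 C; viability was then read by CellTiter-Glo luminescence after 30 min at room temperature.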

[3] = qHTS assay for small molecule agonists of the antioxidant response element (ARE) signaling pathway (AID 743202; active = well fitted activation curve with a large enough effect in the signal ratio in the repeat runs, not every such curve was filed as active; inconclusive = weak or mixed curves, or effect the other way; inactive = no such curve, though single readings can be large or run the other way; the % refers to the signal ratio; note: potency is the fitted concentration of half-maximal effect; for activation: % is set by controls: 0 for no effect and ±100 for the full control effect); conditions: HepG2 ARE-bla reporter, beta-lactamase FRET, 16 h; activation: at 73.3 µM (top of the series) unless noted
How it was run: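 Read-out: LiveBLAzer B/G FRET substrate fluorescence after 2 h at room temperature, following 16 h compound treatment at 37 C of HepG2 cells carrying an ARE-driven beta-lactamase reporter.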

[4] = qHTS assay for small molecule activators of the heat shock response signaling pathway - cell viability counter screen (AID 743209); conditions: HSE-bla HeLa viability, CellTiter-Glo luminescence, 5 h; activity change, negative = cytotoxicity: at 62.6 µM (top of the series) unless noted; note: potency is the fitted concentration of half-maximal effect; nearly all actives have a fitted effect of over 50% in size
How it was run: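 Quantitative HTS format, Tox21 10K library. HeLa cells carrying an HSE-driven beta-lactamase reporter were treated 5 h at 37 C, then assessed for viability by CellTiter-Glo luminescence.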

[5] = qHTS assay for small molecule activators of the heat shock response signaling pathway (AID 743210; active = well fitted activation curve with a large enough effect in the signal ratio in the repeat runs, with a control signal flat, not every such curve was filed as active; inconclusive = weak or mixed curves; the % refers to the signal ratio; note: potency is the fitted concentration of half-maximal effect); conditions: HeLa HSE-bla reporter, beta-lactamase ratio, 5 h; activation: at 62.6 µM (top of the series)
How it was run: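 HSE-bla HeLa cells (beta-lactamase reporter under heat shock response elements) were exposed to compounds for 5 h at 37 C, then loaded with LiveBLAzer B/G FRET substrate for 2.5 h at room temperature before fluorescence reading.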

[6] = qHTS assay to identify small molecule agonists of the peroxisome proliferator-activated receptor delta (PPARd) signaling pathway - cell viability counter screen (AID 743211); conditions: PPARd-bla HEK293H viability, CellTiter-Glo luminescence, 17 h; activity change, negative = cytotoxicity: at 62.6 µM (top of the series); note: potency is the fitted concentration of half-maximal effect; nearly all actives have a fitted effect of over 55% in size
How it was run: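 HEK293H PPARd-bla, 3000 cells/well; 5 h preincubation 37C/5% CO2; cpd in DMSO, 17 h 37C; B/G FRET substrate 2 h RT; CellTiter-Glo 30 min RT, luminescence.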

[7] = molecular target: Peroxisome proliferator-activated receptor delta (Homo sapiens) (UniProt Q03181); experiment: qHTS assay to identify small molecule agonists of the peroxisome proliferator-activated receptor delta (PPARd) signaling pathway (AID 743212; calls by dose curve; note: potency is the fitted concentration of half-maximal effect; for activation: % is set by controls: 0 for no effect and ±100 for the full control effect); conditions: HEK293H PPARd-UAS-bla, beta-lactamase FRET ratio, 17 h; activation: at 62.6 µM (top of the series) unless noted
How it was run: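 GeneBLAzer PPARd UAS-bla HEK293H cells (beta-lactamase reporter under UAS control), plated and rested 5 h at 37 C, then exposed to compounds in DMSO at 37 C; LiveBLAzer B/G FRET substrate added, 2 h room temperature, fluorescence read.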

[8] = qHTS assay to identify small molecule antagonists of the peroxisome proliferator-activated receptor delta (PPARd) signaling pathway - cell viability counter screen (AID 743213); conditions: PPARd-bla HEK293H viability, CellTiter-Glo luminescence, 17 h; viability change, negative = cytotoxic: at 62 µM (top of the series) unless noted; note: potency is the fitted concentration of half-maximal effect; nearly all actives have a fitted effect of over 50% in size
How it was run: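 PPARd-bla HEK293H cells were treated with compounds plus agonist L165041 (300 nM final) for 17 h at 37 C. Viability was then read in the same wells by CellTiter-Glo luminescence after 30 min at room temperature.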

[9] = molecular target: Peroxisome proliferator-activated receptor delta (Homo sapiens) (UniProt Q03181); experiment: qHTS assay to identify small molecule antagonists of the peroxisome proliferator-activated receptor delta (PPARd) signaling pathway (AID 743215; active = well fitted inhibition curve with a large enough effect in the signal ratio in the repeat runs, not every such curve was filed as active; inconclusive = weak or mixed curves, or effect the other way; inactive = no such curve, though single readings can be large or run the other way; the % refers to the signal ratio;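 note: cells stimulated with agonist L165041 at 300 nM final during compound exposure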; note: potency is the fitted concentration of half-maximal effect); conditions: HEK293H PPARd-UAS-bla, beta-lactamase FRET ratio, antagonist, 17 h; ratio activity, negative = inhibition: at 62 µM (top of the series) unless noted
How it was run: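 Antagonist-mode beta-lactamase reporter screen: HEK293H cells with UAS-bla under PPARd control, stimulated by 300 nM L165041 (final) alongside test compound for 17 h at 37 C, then FRET fluorescence after 2 h substrate incubation.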

[10] = qHTS assay to identify small molecule agonists of the farnesoid-X-receptor (FXR) signaling pathway - cell viability counter screen (AID 743218); conditions: FXR-bla HEK293T viability, CellTiter-Glo luminescence, 16 h; viability change, negative = cytotoxic: at 62.6 µM (top of the series) unless noted; note: potency is the fitted concentration of half-maximal effect; nearly all actives have a fitted effect of over 45% in size
How it was run: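 In GeneBLAzer FXR-UAS-bla HEK 293T cells, compounds act for 16 h at 37 C. Cell viability is then scored in the reporter wells by CellTiter-Glo, 30 min at RT, luminescence.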

[11] = qHTS assay to identify small molecule agonists of the vitamin D receptor (VDR) signaling pathway - cell viability counter screen (AID 743224); conditions: VDR-bla HEK293T viability, CellTiter-Glo luminescence, 16 h; activity change, negative = cytotoxicity: at 62.6 µM (top of the series) unless noted; note: potency is the fitted concentration of half-maximal effect; nearly all actives have a fitted effect of over 50% in size
How it was run: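 VDR-bla cell line, quantitative HTS format; 16 h compound incubation (37C, 5% CO2); ATP-based CellTiter-Glo luminescence measured in the reporter assay wells.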

[12] = qHTS assay for small molecule agonists of the antioxidant response element (ARE) signaling pathway - cell viability counter screen (AID 743203; calls by dose curve; note: potency is the fitted concentration of half-maximal effect; nearly all actives have a fitted effect of over 55% in size); conditions: ARE-bla HepG2 viability, CellTiter-Glo luminescence, 16 h; viability change, negative = cytotoxic: at 73.3 µM (top of the series)
How it was run: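 Cells (ARE-bla HepG2, 2,000/well) receive DMSO-dissolved compounds after a 5 hrs rest. Plates incubate 16 hrs at 37C/5% CO2. CellTiter-Glo luminescence is then recorded after 30 min at room temperature.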

[13] = molecular target: Bile acid receptor (Homo sapiens) (UniProt Q96RI1); experiment: qHTS assay to identify small molecule antagonists of the farnesoid-X-receptor (FXR) signaling pathway (AID 743217; active = well fitted inhibition curve with a large enough effect in the signal ratio in the repeat runs, not every such curve was filed as active; inconclusive = weak or mixed curves, or effect the other way; inactive = no such curve, though single readings can be large or run the other way; the % refers to the signal ratio; note: potency is the fitted concentration of half-maximal effect); conditions: HEK293T FXR-UAS-bla, beta-lactamase ratio, CDCA-stimulated, 16 h; activity change, negative = inhibition: at 62.6 µM (top of the series) unless noted
How it was run: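 Beta-lactamase reporter under UAS control in HEK 293T cells; compound exposure 16 h at 37 °C in the presence of chenodeoxycholic acid (50 uM final); signal from B/G FRET substrate after 2 h at room temperature.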

[14] = molecular target: Bile acid receptor (Homo sapiens) (UniProt Q96RI1); experiment: qHTS assay to identify small molecule agonists of the farnesoid-X-receptor (FXR) signaling pathway (AID 743220; active = well fitted activation curve with a large enough effect in the signal ratio in the repeat runs, not every such curve was filed as active; inconclusive = weak or mixed curves, or effect the other way; the % refers to the signal ratio; note: % is set by controls: 0 for no effect and ±100 for the full control effect); conditions: HEK293T FXR-UAS-bla, beta-lactamase FRET ratio, 16 h; activation: at 62.6 µM (top of the series) unless noted
How it was run: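 Beta-lactamase reporter under UAS control in GeneBLAzer FXR HEK 293T cells (5000/well) measured with LiveBLAzer FRET substrate after 2 h at room temperature. Compound exposure lasted 16 h at 37C.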

[15] = qHTS assay to identify small molecule antagonists of the farnesoid-X-receptor (FXR) signaling pathway - cell viability counter screen (AID 743221; active = well fitted cell-killing curve with a large enough effect in the repeat runs, not every such curve was filed as active; inconclusive = weak or mixed curves, or effect the other way; inactive = no such curve, though single readings can be large or run the other way; note: potency is the fitted concentration of half-maximal effect; nearly all actives have a fitted effect of over 50% in size); conditions: FXR-bla HEK293T viability, CellTiter-Glo luminescence, 16 h; activity change, negative = cytotoxicity: at 62.6 µM (top of the series)
How it was run: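 Luminescence from CellTiter-Glo measures cytotoxicity in GeneBLAzer FXR-UAS-bla HEK 293T cells. Cells were exposed to compounds with 50 uM chenodeoxycholic acid (final) for 16 h at 37 C, in wells also used for the reporter readout.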

[16] = molecular target: Vitamin D3 receptor (Homo sapiens) (UniProt P11473); experiment: qHTS assay to identify small molecule antagonists of the vitamin D receptor (VDR) signaling pathway (AID 743223; active = well fitted inhibition curve with a large enough effect in the signal ratio in the repeat runs, not every such curve was filed as active; inconclusive = weak or mixed curves, or effect the other way; inactive = no such curve, though single readings can be large or run the other way; the % refers to the signal ratio; note: potency is the fitted concentration of half-maximal effect); conditions: VDR-UAS-bla HEK293T, beta-lactamase FRET ratio, 16 h; activity change, negative = inhibition: at 61 µM (top of the series) unless noted
How it was run: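 Antagonist mode uses 1alpha,25-dihydroxyvitamin D3 at 3 nM final as stimulus. VDR-bla cells receive compounds in DMSO, incubate 16 h at 37C, then a beta-lactamase FRET substrate for 2 h at room temperature before fluorescence measurement.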

[17] = qHTS assay to identify small molecule antagonists of the vitamin D receptor (VDR) signaling pathway - cell viability counter screen (AID 743225); conditions: VDR-bla HEK293T viability, CellTiter-Glo luminescence, 16 h; viability change, negative = cytotoxic: at 61 µM (top of the series) unless noted
How it was run: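 Read-out: CellTiter-Glo luminescence measured 30 min after reagent addition at room temperature. Cells were VDR-bla HEK 293T exposed 16 h at 37C, 5% CO2, to compound with 3 nM final calcitriol agonist.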
Tags give direction and shape of the fitted curve or compound fluorescence and quenching.

Sequence of UniProt P37231 (P37231 whole entry, looked up): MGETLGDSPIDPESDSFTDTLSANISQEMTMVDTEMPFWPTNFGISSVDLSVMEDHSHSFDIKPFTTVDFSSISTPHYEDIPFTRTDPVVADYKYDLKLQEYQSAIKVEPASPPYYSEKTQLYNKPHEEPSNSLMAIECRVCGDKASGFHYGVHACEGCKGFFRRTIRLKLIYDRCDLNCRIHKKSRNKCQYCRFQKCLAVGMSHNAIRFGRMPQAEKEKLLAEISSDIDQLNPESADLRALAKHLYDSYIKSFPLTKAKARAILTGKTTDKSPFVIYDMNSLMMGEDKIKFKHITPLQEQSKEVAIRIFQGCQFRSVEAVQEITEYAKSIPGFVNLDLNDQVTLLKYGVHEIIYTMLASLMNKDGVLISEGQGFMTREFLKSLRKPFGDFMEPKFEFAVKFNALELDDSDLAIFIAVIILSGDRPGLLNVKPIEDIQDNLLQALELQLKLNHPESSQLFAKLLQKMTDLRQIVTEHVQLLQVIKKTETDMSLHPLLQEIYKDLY
Sequence of UniProt Q03181 (Q03181 whole entry, looked up): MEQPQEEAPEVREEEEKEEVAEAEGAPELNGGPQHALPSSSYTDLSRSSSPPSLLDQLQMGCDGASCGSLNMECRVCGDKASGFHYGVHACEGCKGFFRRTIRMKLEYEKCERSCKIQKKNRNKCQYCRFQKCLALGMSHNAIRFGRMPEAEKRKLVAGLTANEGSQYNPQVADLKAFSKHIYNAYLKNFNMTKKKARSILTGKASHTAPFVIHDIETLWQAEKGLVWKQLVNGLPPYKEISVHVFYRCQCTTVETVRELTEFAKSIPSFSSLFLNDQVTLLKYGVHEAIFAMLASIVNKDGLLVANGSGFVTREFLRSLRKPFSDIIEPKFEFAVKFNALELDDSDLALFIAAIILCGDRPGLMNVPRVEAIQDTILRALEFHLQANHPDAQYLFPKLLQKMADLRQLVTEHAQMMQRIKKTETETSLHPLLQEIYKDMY
Sequence of UniProt Q96RI1 (Q96RI1 whole entry, looked up): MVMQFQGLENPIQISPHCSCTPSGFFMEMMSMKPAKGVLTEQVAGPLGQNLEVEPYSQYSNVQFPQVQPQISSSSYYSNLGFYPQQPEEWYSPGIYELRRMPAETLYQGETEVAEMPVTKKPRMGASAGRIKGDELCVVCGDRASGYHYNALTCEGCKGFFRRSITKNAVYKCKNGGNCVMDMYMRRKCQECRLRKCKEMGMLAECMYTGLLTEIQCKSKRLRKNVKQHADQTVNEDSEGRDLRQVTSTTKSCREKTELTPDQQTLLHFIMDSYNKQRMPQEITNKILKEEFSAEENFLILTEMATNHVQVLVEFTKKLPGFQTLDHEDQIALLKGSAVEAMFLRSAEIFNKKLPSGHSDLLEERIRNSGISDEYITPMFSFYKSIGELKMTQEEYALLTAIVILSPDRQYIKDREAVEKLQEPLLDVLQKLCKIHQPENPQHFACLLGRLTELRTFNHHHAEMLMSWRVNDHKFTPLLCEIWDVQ
Sequence of UniProt P11473 (P11473 whole entry, looked up): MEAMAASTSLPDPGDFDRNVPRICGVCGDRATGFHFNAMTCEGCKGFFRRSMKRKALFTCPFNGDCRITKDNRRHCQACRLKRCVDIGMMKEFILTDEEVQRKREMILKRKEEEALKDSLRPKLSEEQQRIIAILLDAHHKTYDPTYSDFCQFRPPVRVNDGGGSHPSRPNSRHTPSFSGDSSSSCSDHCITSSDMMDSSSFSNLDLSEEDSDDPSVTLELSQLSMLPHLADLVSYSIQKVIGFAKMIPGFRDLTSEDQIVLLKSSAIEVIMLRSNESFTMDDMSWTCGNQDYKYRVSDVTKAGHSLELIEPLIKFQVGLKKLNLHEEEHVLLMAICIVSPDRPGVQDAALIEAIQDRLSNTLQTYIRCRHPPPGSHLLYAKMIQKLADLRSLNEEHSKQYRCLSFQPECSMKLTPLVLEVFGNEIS

Row | Structure (SMILES) | Potency [1] | Potency [2] | activation [3] | Potency [4] | Potency [5] | Potency [6] | Potency [7] | Potency [8] | Potency [9] | Potency [3] | activation [7] | Potency [10] | Potency [11] | Potency [12] | ratio activity, negative = inhibition [9] | Potency [13] | activation [14] | Potency [15] | Potency [16] | Potency [17]
1 | CC1CC(OC(=O)c2ccccc2O)CC(C)(C)C1 (stereo unspecified) | inconclusive: 21.7 µM [activator, single point] | inconclusive: 27.3 µM [cytotoxic, partial curve, poor fit] | inconclusive: -15% and inconclusive: -10.4% | inconclusive: 54.4 µM [cytotoxic, single point] and inconclusive: 49 µM [cytotoxic, single point] and inconclusive: 2.98 µM [cytotoxic, partial curve, poor fit] | inconclusive: 35.7 µM and inconclusive: 61.7 µM and inconclusive: 37.6 µM | inconclusive: 54.4 µM [cytotoxic, single point] | inconclusive: 54.4 µM [rising, single point] | inconclusive: 61.1 µM [cytotoxic, partial curve, poor fit] | inconclusive: 61.1 µM [rising, single point] |  |  |  |  |  |  |  |  |  |  | 
2 | CCn1c2ccccc2c2cc(N)ccc21 | inactive | inconclusive: 43.2 µM [cytotoxic, partial curve, poor fit] | inconclusive: 39.7% |  |  | inconclusive: 43.2 µM [cytotoxic, partial curve] | inconclusive: 54.4 µM | inconclusive: 19.5 µM [cytotoxic, full curve, poor fit] and inconclusive: 13.8 µM [cytotoxic, single point] | inconclusive: 21.9 µM [rising, partial curve, poor fit] and inconclusive: 7.76 µM [rising, partial curve, poor fit] | inconclusive: 15.4 µM [rising, full curve, poor fit] | inconclusive: 7.35% | inconclusive: 0.616 µM [rising, partial curve, poor fit] | inconclusive: 54.4 µM [cytotoxic, partial curve, poor fit] |  |  |  |  |  |  | 
3 | C=C1C(C)(C)[C@@]2(Cl)C(Cl)[C@]1(Cl)C(Cl)(Cl)C2(Cl)Cl (stereo partly specified) | inconclusive: 48.1 µM [rising, partial curve, poor fit] | inconclusive: 53.9 µM [cytotoxic, single point] |  | inconclusive: 53.9 µM [cytotoxic, single point] | inconclusive: 56 µM | active: 38.2 µM | inconclusive: 60.5 µM [rising, single point] |  |  | active: 7.56 µM |  | active: 53.9 µM | active: 38.2 µM | inconclusive: 67.3 µM [cytotoxic, single point] | inconclusive: -5.26% | inconclusive: 53.9 µM | inconclusive: 3.9% | inconclusive: 53.9 µM | inconclusive: 53.9 µM [single point] | inconclusive: 53.9 µM [cytotoxic]
